Test results reported in patent US11178870B2 (priority 2017, dated 2021).

What was measured:
Magnaporthe grisea = assay type: in vivo; conditions: Table 7, Test A
[1] = system: Colletotrichum orbiculare; conditions: 250 ppm sprayed (2.5 ml/pot) before inoculation; assessed 6 to 10 days after inoculation
Phytophthora infestans = assay type: in vivo; conditions: Table 7, Test F

Q: `CCn1c(-c2c(F)cccc2Br)c(-n2cc(Cl)cn2)cc(Br)c1=O` [Compound 219] was tested. Which “control value, Test A (blast on rice)” value (Magnaporthe grisea) did it give?
A: L (L shows the control value of 50% or less)

Q: What about the “control value, Test H (anthracnose on cucumber)” value (“control value, Test H” for short) [1] of the same compound?
A: L (L shows the control value of 50% or less)

Q: And the “control value, Test F (late blight on tomato)” value (from here on “control value, Test F”) (Phytophthora infestans)?
A: L (L shows the control value of 50% or less)

Q: What does the source list for `CCn1c(-c2ccccc2C)c(-n2ncc(C)c2Cl)cc(Br)c1=O` [Compound 245]?
A: control value, Test A (blast on rice) (Magnaporthe grisea): H (H shows the control value more than 50%); control value, Test H (anthracnose on cucumber) [1]: H (H shows the control value more than 50%); control value, Test F (late blight on tomato) (Phytophthora infestans): L (L shows the control value of 50% or less)

Q: `Cc1cnn(-c2ccc(=O)n(CC(F)F)c2-c2ccc(F)cc2F)c1` [Compound 254] was tested. Which “control value, Test A (blast on rice)” value (Magnaporthe grisea) did it give?
A: H (H shows the control value more than 50%)

Q: And the “control value, Test H” value [1]?
A: H (H shows the control value more than 50%)

Q: What about the “control value, Test F” value (Phytophthora infestans) of the same compound?
A: L (L shows the control value of 50% or less)

Q: Which results are given for `CCn1c(-c2ccc(F)cc2Cl)c(-n2ncc(C)c2Cl)cc(Cl)c1=O` [Compound 336]?
A: control value, Test A (blast on rice) (Magnaporthe grisea): H (H shows the control value more than 50%); control value, Test H (anthracnose on cucumber) [1]: H (H shows the control value more than 50%); control value, Test F (late blight on tomato) (Phytophthora infestans): H (H shows the control value more than 50%)

Q: `Cc1cnn(-c2cc(Br)c(=O)n(CC(F)F)c2-c2ccc(F)cc2Br)c1` [Compound 339] was tested. Which “control value, Test A (blast on rice)” value (Magnaporthe grisea) did it give?
A: H (H shows the control value more than 50%)

Q: And the “control value, Test H” value [1]?
A: H (H shows the control value more than 50%)

Q: And the “control value, Test F” value (Phytophthora infestans)?
A: L (L shows the control value of 50% or less)

Q: `Cc1cnn(-c2ccc(=O)n(CC(F)F)c2-c2ccccc2F)c1` [Compound 305] was tested. Which “control value, Test A (blast on rice)” value (Magnaporthe grisea) did it give?
A: L (L shows the control value of 50% or less)

Q: And the “control value, Test H” value [1]?
A: L (L shows the control value of 50% or less)

Q: What about the “control value, Test F” value (Phytophthora infestans) of the same compound?
A: L (L shows the control value of 50% or less)

Q: Which “control value, Test A (blast on rice)” value (Magnaporthe grisea) does the source give for `O=c1c(Cl)cc(-c2ccsc2Br)c(-c2c(F)cccc2F)n1CC(F)F` [Compound 347] here?
A: H (H shows the control value more than 50%)

Q: With `CCn1c(-c2ccccc2Br)c(-n2cc(C)cn2)cc(Br)c1=O` [Compound 269] as the compound, how does the “control value, Test A (blast on rice)” value (Magnaporthe grisea) read?
A: H (H shows the control value more than 50%)

Q: What about the “control value, Test H” value [1] of the same compound?
A: L (L shows the control value of 50% or less)

Q: And the “control value, Test F” value (Phytophthora infestans)?
A: L (L shows the control value of 50% or less)

Q: `CCn1c(-c2c(F)cccc2F)c(-n2cc(F)cn2)cc(Cl)c1=O` [Compound 319] was tested. Which “control value, Test A (blast on rice)” value (Magnaporthe grisea) did it give?
A: H (H shows the control value more than 50%)

Q: And the “control value, Test H” value [1]?
A: H (H shows the control value more than 50%)

Q: And the “control value, Test F” value (Phytophthora infestans)?
A: L (L shows the control value of 50% or less)

Q: What does the source list for `Cc1cnn(-c2cc(Cl)c(=O)n(CC(F)F)c2-c2ccc(F)cc2Br)c1Cl` [Compound 340]?
A: control value, Test A (blast on rice) (Magnaporthe grisea): H (H shows the control value more than 50%); control value, Test H (anthracnose on cucumber) [1]: H (H shows the control value more than 50%); control value, Test F (late blight on tomato) (Phytophthora infestans): L (L shows the control value of 50% or less)

Q: Which results are given for `CCOc1cc(F)c(-c2c(-n3cc(F)cn3)cc(Cl)c(=O)n2CC)c(F)c1` [Compound 316]?
A: control value, Test A (blast on rice) (Magnaporthe grisea): H (H shows the control value more than 50%); control value, Test H (anthracnose on cucumber) [1]: H (H shows the control value more than 50%); control value, Test F (late blight on tomato) (Phytophthora infestans): L (L shows the control value of 50% or less)

Q: For `CCn1c(-c2ccc(F)cc2F)c(-n2cc(F)cn2)cc(Br)c1=O` [Compound 252], which “control value, Test A (blast on rice)” value (Magnaporthe grisea) is on record?
A: H (H shows the control value more than 50%)

Q: What about the “control value, Test H” value [1] of the same compound?
A: H (H shows the control value more than 50%)

Q: And the “control value, Test F” value (Phytophthora infestans)?
A: L (L shows the control value of 50% or less)
